The list shows a part of the results. Sequences were assembled here from the parent chain. Inactive controls read about 0.05.
B1: TEV protease; numbered along this chain (parent)
chain: MGESLFKGPRDYNPISSSICHLTNESDGHTTSLYGIGFGPFIITNKHLFRRNNGTLVVQSLHGVFKVKDTTTLQQHLVDGRDMIIIRMPKDFPPFPQKLKFREPQREERICLVTTNFQTKSMSSMVSDTSCTFPSGDGIFWKHWIQTKDGQCGSPLVSTRDGFIVGIHSASNFTNTNNYFTSVPKNFMELLTNQEAQQWVSGWRLNADSVLWGGHKVFMVKPEEPFQPVKEATQL

Variants of: B1
Test: raw area under fraction-flipped curve 0-4 h after induction (AUC4h, not background-subtracted), DNA-recorder readout of cleavage of the substrate (dimensionless); higher = more cleavage of the substrate by the protease variant
Settings: temperature: 34 °C; time window: 0-4 h after rhamnose induction
Method: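 In vivo DNA recorder in E. coli TOP10(DE3) ΔrhaA at 34 °C. Each TEVp single-site mutant (parent TEVp 0) is paired with a single-site variant of the 7-mer TEVs (canonical ENLYFQ|S). The substrate sits between flexible linkers in a Bxb1-sfGFP-TEVs-SsrA fusion, so cleavage stabilises Bxb1 and speeds flipping of a recombination array, read by NGS. The value is the raw area under the fraction-flipped curve over 0-4 h after rhamnose induction (AUC4h), with ≥20 reads per time point. It is not background-subtracted; inactive controls average about 0.047.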
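Note: Bxb1 expression induced with 0.2% (w/v) L-rhamnose at OD600 near 0.5, cultures sampled hourly, flipped fraction per protease–substrate barcode pair counted by paired-end Illumina sequencing.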

Row | Variant | area with substrate ENAYFQS | area with substrate ENCYFQS | area with substrate ENDYFQS | area with substrate ENEYFQS | area with substrate ENGYFQS | area with substrate ENHYFQS | area with substrate ENKYFQS | area with substrate ENNYFQS | area with substrate ENPYFQS | area with substrate ENQYFQS | area with substrate ENRYFQS | area with substrate ENSYFQS | area with substrate ENTYFQS | area with substrate ENVYFQS | area with substrate ENWYFQS | area with substrate ENYYFQS | area with substrate ENIYFQS | area with substrate ENFYFQS | area with substrate ENMYFQS
1 | N45A | 0.0562 | 0.0372 | 0.0697 | 0.06 | 0.0661 | 0.0619 | 0.0634 | 0.06 | 0.0559 | 0.0507 | 0.0506 | 0.0577 | 0.0573 | 0.0513 | 0.0253 | 0.0439 |  |  | 
2 | Q74F | 0.0476 |  | 0.0584 | 0.0497 | 0.0495 |  |  |  | 0.0597 |  |  |  | 0.0498 |  | 0.0422 |  | 0.109 |  | 
3 | Q74E | 0.053 |  | 0.0592 | 0.0644 | 0.0595 |  | 0.0625 |  |  | 0.0574 |  |  | 0.0684 | 0.0853 | 0.0465 |  | 0.119 | 0.0546 | 
4 | Q74W | 0.0383 | 0.0573 | 0.0629 | 0.0587 | 0.0772 | 0.0531 |  | 0.0601 | 0.0619 | 0.0471 | 0.074 | 0.0428 | 0.0669 | 0.0806 | 0.0034 | 0.0568 |  | 0.0706 | 
5 | I85V | 0.0572 | 0.0557 | 0.0581 | 0.0572 | 0.0652 |  | 0.0647 |  | 0.0749 | 0.067 | 0.0581 | 0.0695 |  | 0.0596 | 0.0467 | 0.0501 |  |  | 
6 | I85M | 0.0656 | 0.0734 | 0.0494 |  | 0.0638 | 0.0589 |  | 0.0604 | 0.0788 | 0.0634 |  | 0.0563 | 0.0422 | 0.0758 |  | 0.0487 | 0.127 | 0.0721 | 0.0747
7 | I43T | 0.0533 | 0.0595 | 0.0648 | 0.0675 | 0.0603 |  | 0.0613 | 0.0729 |  | 0.0452 | 0.0527 | 0.0585 | 0.0588 | 0.0485 |  | 0.0571 | 0.071 | 0.0526 | 0.0467
8 | I43C | 0.058 | 0.0667 | 0.0225 | 0.063 | 0.0523 |  | 0.0611 | 0.0708 | 0.0647 | 0.0578 | 0.0223 | 0.0648 | 0.0587 | 0.0684 | 0.0578 |  |  |  | 0.0629
9 | T70D | 0.0619 | 0.0606 | 0.0585 | 0.0425 | 0.0631 | 0.0513 | 0.0793 | 0.0632 |  |  | 0.0699 | 0.0469 | 0.0583 | 0.062 | 0.062 |  |  |  | 
10 | T70W | 0.0615 | 0.0666 | 0.0642 | 0.0652 | 0.0656 | 0.0598 | 0.0636 | 0.037 | 0.0591 | 0.0615 | 0.0609 | 0.0632 | 0.0603 | 0.0621 | 0.0119 | 0.0603 | 0.0887 | 0.0646 | 0.0369
11 | F49C | 0.0805 |  | 0.0605 | 0.0695 | 0.0655 | 0.0566 | 0.0571 | 0.0451 | 0.0525 | 0.0568 |  | 0.056 |  | 0.057 | 0.0522 | 0.0533 | 0.0778 | 0.0618 | 0.0298
12 | H47S | 0.0432 | 0.0454 | 0.0625 | 0.077 | 0.063 | 0.0714 |  |  | 0.0585 | 0.0672 |  | 0.0699 | 0.0459 | 0.0717 |  | 0.0572 | 0.0663 | 0.0612 | 0.0558
13 | H47I | 0.0384 | 0.0581 | 0.0614 | 0.0675 | 0.0566 |  |  | 0.069 |  | 0.0557 | 0.0602 | 0.0669 | 0.0444 | 0.0524 |  |  | 0.0551 | 0.0586 | 0.0616
14 | H47V | 0.0637 | 0.0678 | 0.062 | 0.0639 | 0.0437 | 0.0608 |  | 0.0587 |  | 0.051 | 0.0687 | 0.0612 | 0.071 |  |  | 0.0726 | 0.0471 | 0.0478 | 0.0704
15 | D69R | 0.0547 | 0.0898 | 0.0457 | 0.0481 | 0.0477 |  | 0.0629 | 0.0565 | 0.059 | 0.0574 |  | 0.0549 |  | 0.0612 | 0.0312 | 0.053 | 0.0285 |  | 
16 | K66I | 0.0573 | 0.0742 | 0.0534 | 0.0167 |  |  | 0.162 |  |  |  | 0.0651 |  | 0.063 | 0.079 | 0.0376 |  |  |  | 
17 | K66V | 0.0549 | 0.0655 | 0.0643 | 0.0557 |  | 0.0641 |  | 0.0568 | 0.0644 |  |  | 0.0547 |  |  | 0.0415 |  |  | 0.0504 | 0.0788
18 | M83I | 0.0623 | 0.057 |  | 0.0822 |  |  |  |  | 0.0519 | 0.0581 | 0.0466 | 0.0293 |  |  |  |  |  |  | 
19 | Q59Y | 0.0509 | 0.0676 | 0.0673 | 0.0653 | 0.0673 |  |  |  | 0.0488 | 0.0503 | 0.0601 | 0.0734 | 0.073 |  |  | 0.0324 | 0.12 | 0.11 | 0.0564
20 | K68Q | 0.0621 | 0.0615 |  | 0.061 | 0.045 | 0.0651 |  |  |  |  | 0.0612 | 0.0636 |  | 0.0755 |  |  | 0.11 | 0.0676 | 0.0901
21 | K68E | 0.0565 | 0.0572 | 0.0416 | 0.0525 |  |  |  | 0.106 | 0.0634 | 0.0603 | 0.071 | 0.059 |  | 0.0829 |  | 0.0855 |  | 0.0567 | 
22 | K68L | 0.0822 | 0.0679 | 0.0638 | 0.0594 | 0.0601 | 0.0516 | 0.0686 | 0.0681 |  | 0.0581 | 0.0609 | 0.0617 | 0.0404 | 0.0742 | 0.0476 | 0.0567 | 0.107 | 0.0539 | 0.0883
23 | L61K | 0.0741 |  | 0.0355 | 0.0761 | 0.0581 |  | 0.0345 | 0.0661 | 0.059 |  | 0.0475 | 0.0637 |  | 0.111 |  | 0.0573 | 0.0584 | 0.0559 | 
24 | R81L | 0.0679 |  |  | 0.0702 | 0.0621 | 0.0626 |  | 0.0656 |  | 0.0723 |  | 0.0666 |  | 0.0736 |  | 0.0953 | 0.101 | 0.0529 | 0.0615
25 | R81E | 0.0468 |  | 0.0602 | 0.0618 |  |  |  | 0.0637 |  | 0.0527 | 0.0627 |  |  | 0.064 | 0.0516 |  |  |  | 
26 | R81D | 0.0573 | 0.0724 | 0.0601 | 0.0721 | 0.0571 | 0.0417 | 0.0598 | 0.0787 | 0.0427 |  | 0.0706 | 0.0537 |  |  |  | 0.0549 | 0.0611 |  | 
